The record followed here is the supplement of paper PMC9174493.

The structures appear in SMILES notation. The list shows a part of the results. Single values of this set are uncertain. Values with irradiation are relative to irradiated vehicle.

This experiment concerns A549-Dual. As to the kind of experiment: ISRE reporter (Lucia luciferase) activity, viability-corrected, relative to vehicle (fold change vs vehicle); higher = more activation of STING-IRF / NF-kB immune response reporter. The note with it: 10 µM; irradiation: 8 Gy/4 fr.
For `Nc1nc2c(ncn2COCCO)c(=O)[nH]1` [Aciclovir], the ISRE reporter was 0.76. Consider `O=[N+]([O-])c1cncn1CCN1CCOCC1` [Nimorazole], for which the ISRE reporter is 0.985.

For the compound `NCC1OC(OC2C(N)CC(N)C(OC3OC(CO)C(O)C(N)C3O)C2O)C(O)C(O)C1O.O=S(=O)(O)O` (centres undefined) [Kanamycin sulfate], the ISRE reporter was found to be 0.834. `CSCCC(N)C(=O)O` (racemic) [DL-Methionine] registered an ISRE reporter of 0.896. `CC1Cc2ccccc2N1NC(=O)c1ccc(Cl)c(S(N)(=O)=O)c1` (centres undefined) [Indapamide] displayed an ISRE reporter of 0.853. Regarding `Nc1ncnc2c1ncn2C1OC(COP(=O)(O)OP(=O)([O-])OP(=O)([O-])O)C(O)C1O.[Na+].[Na+]` (centres undefined) [Adenosine disodium triphosphate], the ISRE reporter worked out at 0.976. The figure for `Nc1ncnc2c1ncn2C1OC(CO)C(O)C1O.O` (centres undefined) [Vidarabine monohydrate] is 0.797. Compound `CC(COc1ccccc1Cc1ccccc1)N1CCCCC1.O=P(O)(O)O` (centres undefined) [Benproperine phosphate] yielded an ISRE reporter of 0.734.

As to `CCOc1ccc(Cc2cc(C34OCC(CO)(O3)C(O)C(O)C4O)ccc2Cl)cc1` (centres undefined) [Ertugliflozin], the ISRE reporter was determined as 0.873. Take `CCCOC(C(=O)OC1CCN(C)CC1)(c1ccccc1)c1ccccc1.Cl` [Propiverine hydrochloride]: the ISRE reporter was determined as 0.84.

Compound `CC(=O)CCC(=O)O` [Levulinic acid] yielded an ISRE reporter of 0.747. The value for `C#CC1(O)CCC2C3CCC4=CCCCC4C3CCC21C` (centres undefined) [Lynestrenol] was 0.544; that for `CCCCCCCCc1ccc(CCC(N)(CO)CO)cc1.Cl` [Fingolimod (FTY720) HCl] was 0.794; that for `CC1COc2c(N3CCN(C)CC3)c(F)cc3c(=O)c(C(=O)O)cn1c23` (centres undefined) [Levofloxacin] was 0.685. Consider `CC(=O)Oc1cc2c(s1)CCN(C(C(=O)C1CC1)c1ccccc1F)C2.Cl` (centres undefined) [Prasugrel Hydrochloride], for which the ISRE reporter is 0.746. Take `O=C1OC2(c3ccc(O)cc3Oc3cc(O)ccc32)c2ccccc21` [Fluorescein]: the ISRE reporter turned out to be 1.39. In turn, `[OH][Al]([OH])[OH]` [Aluminium hydroxide] returned an ISRE reporter of 1.47. Turning to `NCCC(O)C(=O)NC1CC(N)C(OC2OC(CN)C(O)C(O)C2O)C(O)C1OC1OC(CO)C(O)C(N)C1O.O` (centres undefined) [Amikacin hydrate], the ISRE reporter was determined as 0.773. The figure for `NC(=O)N1c2ccccc2C=Cc2ccccc21` [Carbamazepine] is 0.684. The compound `CC(C)(O)c1ccccc1CCC(SCC1(CC(=O)[O-])CC1)c1cccc(/C=C/c2ccc3ccc(Cl)cc3n2)c1.[Na+]` (centres undefined) [Montelukast Sodium] yielded an ISRE reporter of 0.762.

In turn, `CCCc1nn(C)c2c(=O)[nH]c(-c3cc(S(=O)(=O)N4CCN(C)CC4)ccc3OCC)nc12` [Sildenafil] had an ISRE reporter of 0.915. `COC1/C=C/OC2(C)Oc3c(C)c(O)c4c(O)c(c(/C=N/N5CCN(C)CC5)c(O)c4c3C2=O)NC(=O)/C(C)=C/C=C/C(C)C(O)C(C)C(O)C(C)C(OC(C)=O)C1C` (centres undefined) [Rifampin] had an ISRE reporter of 1.03. The value for `CCCNC(=O)NS(=O)(=O)c1ccc(Cl)cc1` [Chlorpropamide] was 0.721; that for `C=C(C)C1CCC2(CO)CCC3(C)C(CCC4C5(C)CCC(O)C(C)(C)C5CCC43C)C12` (centres undefined) [Betulin] was 0.129. `COC(=O)Nc1nc2cc(C(=O)c3ccccc3)ccc2[nH]1` [Mebendazole] had an ISRE reporter of 0.141. Compound `COc1ccc(CC2c3cc(OC)c(OC)cc3CC[N+]2(C)CCC(=O)OCCCCCOC(=O)CC[N+]2(C)CCc3cc(OC)c(OC)cc3C2Cc2ccc(OC)c(OC)c2)cc1OC.O=S(=O)([O-])c1ccccc1.O=S(=O)([O-])c1ccccc1` (centres undefined) [Atracurium Besylate] displayed an ISRE reporter of 0.536. On to `COS(=O)(=O)[O-].COc1cc(N)cn[n+]1-c1ccccc1` [Amezinium (methylsulfate)], for which the ISRE reporter is 0.347. The figure for `Cc1cc(/C=C/c2ccc3cc(N(C)C)ccc3[n+]2C)c(C)n1-c1ccccc1.Cc1cc(/C=C/c2ccc3cc(N(C)C)ccc3[n+]2C)c(C)n1-c1ccccc1.O=C([O-])c1cc2ccccc2c(Cc2c(O)c(C(=O)[O-])cc3ccccc23)c1O` [pyrvinium] is 0.185; for `O=C(O)CSCC(=O)NC1CCSC1=O` (centres undefined) [Erdosteine] it is 0.866.
